Reference: PubChem BioAssay AID602313 (National Center for Advancing Translational Sciences (NCATS), 2012)
In all, about 390,000 compounds went through this assay and about 760 (0.19%) were called active. About 3% were inconclusive and are not listed. Calls come from the whole dose curve; as a rule, active = well fitted inhibition curve with a large enough effect; inconclusive = small, poorly fitted or top-dose-only effect; inactive = flat fitted curve, though single readings scatter. The entries are a selection whose mix differs from that of the whole data set.

Test: qHTS for Inhibitors of Vif-A3F Interactions: qHTS; note: nearly all actives have a fitted effect of over 65% in size; for activity, negative = active: % of control where 0% means no effect
Conditions: HeLa A3F-eYFP + Vif (tagged APOBEC3F with the HIV-1 protein that degrades it), YFP fluorescence increase; series mostly up to 46.1 µM; activity, negative = active: at the top concentration
Summary of the method: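 HeLa cells stably expressing A3F-eYFP plus Vif, plated and incubated overnight at 37 deg C, then exposed to compounds overnight at 37 deg C. Blocked degradation read as raised yellow fluorescence (Ex 488/Em 500-530).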
Potency is the fitted concentration of half-maximal effect.

SMILES | activity, negative = active | Potency
O=C(N/N=C/C(Cl)=C/c1ccccc1)c1ccco1 | inactive: -15.8% | –
O=C1C(=Cc2cccn2-c2ccccc2)C(=O)c2ccccc21 | – | active: 28.2 µM
CCCCCCN1C[C@@H](O)[C@H](n2cc(COC(=O)c3ccccc3)nn2)C[C@@H]1c1ccc(C)cc1 | inactive: -10.1% | –
CC1(C)CC(=O)C2=C(C1)OC(N)=C(C#N)C2c1ccccc1[N+](=O)[O-] (centres undefined) | inactive: -34.1% | –
CCN1/C(=C/c2cc[n+](C)cc2)C=Cc2cc(C)ccc21 | – | active: 12.6 µM
COc1cc(CNc2ccc3[nH]c(=O)[nH]c3c2)ccc1OCc1ccc(F)cc1Cl | inactive: -8.33% | –
COc1cc(Nc2nc3ccccc3n3nnnc23)cc(OC)c1OC | – | active: 6.31 µM
CCN1C/C(=C/c2ccc(N3CCOCC3)cc2)C(=O)/C(=C/c2ccc(N3CCOCC3)cc2)C1 | – | active: 25.1 µM
Cc1c2ccccc2nc2c(F)c(N(C)C)c(F)c(F)c12 | – | active: 25.1 µM
O=C1C2C(C(=O)N1CCN1CCN(Cc3ccc([N+](=O)[O-])cc3)CC1)[C@H]1C=C[C@@H]2C1 (some centres undefined) | inactive: -1.65% | –
COc1ccc([N+](=O)[O-])cc1NC(=O)CC1SC(=Nc2cccc(C)c2C)N(/N=C/c2cccc(OC)c2OC)C1=O (centres undefined) | inactive: 2.71% | –
CCO/C=C1/C(=O)N(CC)c2ccccc21 | inactive: -6.83% | –
C[C@@H]1CN([C@H](C)CO)C(=O)c2cc(Br)cnc2O[C@H]1CN(C)Cc1ccccc1 | inactive: -1.03% | –
N#C/C(=C/C=C/c1ccccc1)C(=O)Nc1ccccc1 | inactive: -1.65% | –
O=C(O)CSc1cccc2cccnc12 | inactive: 4.24% | –
O=C(/C=C(\O)c1ccc(Cl)cc1)C(=O)NNC(=O)C(O)(c1ccccc1)c1ccccc1 | inactive: -0.539% | –
Cn1nnnc1SCCNCc1cc(Br)ccc1OCc1ccccc1Cl | – | active: 12.6 µM
CCCCCC1C(=O)N2C=C(c3ccccc3)c3ccccc3N2C1=O (centres undefined) | inactive: 18.8% | –
O=C(NCCCn1ccnc1)/C(=C\c1cccs1)NC(=O)c1ccco1 | inactive: -21.6% | –
COc1ccc2c(C)cc(SCC(=O)N3CCOCC3)nc2c1 | – | active: 25.1 µM
CC(NC(=O)c1ccco1)c1nc(-c2ccccc2)no1 (centres undefined) | inactive: 4.46% | –
O=C1c2ccccc2C(=O)c2c(/C=C/N3CCCCC3)ccnc21 | – | active: 22.4 µM
Cc1occc1C(=O)N/N=C/C(Br)=C\c1ccccc1 | inactive: -27.2% | –
CN(CCC#N)C(=O)COC(=O)c1c2c(nc3ccccc13)/C(=C/c1ccco1)CC2 | inactive: -7.58% | –

SMILES | activity, negative = active | Potency
N#C/C(=C/c1ccc(-c2ccccc2[N+](=O)[O-])o1)C(N)=O | inactive: -3.58% | –
CCN1C(=O)/C(=C\c2cn(-c3ccccc3)nc2-c2cccnc2)SC1=S | inactive: -28.1% | –
O=c1oc(/C=C/c2ccc([N+](=O)[O-])s2)nc2ccccc12 | – | active: 28.2 µM
Cc1ccc(S(=O)(=O)c2nc(-c3ccco3)oc2SC(C)C)cc1 | inactive: 1.36% | –
COC1=C(Br)C(=O)c2ncccc2C1=O | – | active: 11.2 µM
CCN(CC)CCNC(=O)C1CCN(S(=O)(=O)c2c(C)noc2/C=C/c2ccccc2F)CC1 | inactive: -2.45% | –
O=[N+]([O-])c1ccc(N/N=C/c2c[nH]c3ccccc23)cc1 | – | active: 12.6 µM
Cc1ccc(C)c(N2CCN(C(=O)c3ccc4c(c3)c(C)c(C)n4C)CC2)c1 | inactive: -13.7% | –
CCN1CCN(c2cc(C)c3cc(NC(=O)c4ccc(OC)c(OC)c4)ccc3n2)CC1 | inactive: -3.73% | –
Cc1ccc(C(=O)N/C(=C\c2ccc(-c3cccc([N+](=O)[O-])c3)o2)C(=O)NCCCN(C)C)cc1 | inactive: -11.6% | –
CC(/C=N/NC(=O)CSc1ccccn1)=C\c1ccc(C(C)C)cc1 | inactive: 5.54% | –
COc1cccc(NC(=S)N2CCC(c3ccc(C)cc3)C2)c1 (centres undefined) | inactive: 28% | –
Cn1cc(C(=O)N/N=C/C(Br)=C\c2ccccc2)ccc1=O | inactive: -25.3% | –
N#Cc1cccc(NC(=O)CSc2ccc3c4c(cccc24)C(=O)c2ccccc2-3)c1 | – | active: 11.2 µM
CC(C)C(NC(=O)OCc1ccccc1)C(=O)OCC(=O)NCc1ccco1 (centres undefined) | inactive: -1.1% | –
Cc1ccc(Cl)c2c(N=Nc3ccccc3)c(O)[nH]c12 | – | active: 8.91 µM
CCCCCCN1C[C@@H](O)[C@H](n2cc(-c3ccc(F)cc3)nn2)C[C@@H]1c1ccccc1 | inactive: -19.5% | –
O=C(NCCc1cccs1)c1ccc(Cl)c(Cl)c1 | – | active: 2.51 µM
Cc1nc2ccc(NC(=O)c3cc(S(=O)(=O)N(C)c4ccccc4)ccc3Cl)cc2s1 | – | active: 22.4 µM
CCc1ccccc1NC(=O)Cn1nnc(C(=O)NCc2cccc(OC)c2)c1N | inactive: -4.67% | –
CC(C)(C)c1ccc(OCC(=O)Nc2ccc3c4c(cccc24)C(=O)NC3=O)cc1 | – | active: 12.6 µM
CCCN(C(=O)c1cn(C)c(=O)c2ccccc12)c1ccccc1C | inactive: -3.64% | –
N#CC1=C(N)C(C#N)(C#N)C(c2cccnc2)C2CN(C(=O)OCc3ccccc3)CC=C12 (centres undefined) | inactive: -5.91% | –
CCCSc1ccc([C@@H]2[C@@H]3C(=O)N(CC)C(=O)[C@@H]3[C@]3(C(=O)OC)CCCCN23)cc1OC | inactive: -4.74% | –

SMILES | activity, negative = active | Potency
CC(=C/c1ccccc1)/C=N/NC(=O)CSc1nc(C)cc(C)n1 | inactive: -12.6% | –
COc1cc(N2CCCC2)c(OC)cc1/C=C(/C#N)c1ccc(F)cc1 | – | active: 10 µM
O=S(=O)(Nc1nc2ccccc2nc1N1CCN(c2ccccn2)CC1)c1ccc(Cl)cc1 | – | active: 7.94 µM
CCOC(=O)c1csc(-c2ccc3c(c2)CCO3)n1 | inactive: 25.3% | –
O=C(OCc1cn([C@H]2CN(Cc3cccs3)[C@@H](c3ccc(Cl)cc3)C[C@@H]2O)nn1)c1ccccc1 | inactive: -0.0844% | –
CC(C)(C)c1nnc2sc(SC/C(O)=C(\C#N)c3nc4ccccc4[nH]3)nn2c1=O | inactive: -8.17% | –
Cc1ccc(C(=O)Nc2cccc(C(F)(F)F)c2)cc1NC(=O)c1cnnc2ccccc12 | inactive: -0.93% | –
COc1ccc(Cl)cc1N1C(=O)/C(=C\c2sccc2C)N=C1SCC(=O)NC1CC1 | inactive: -13.9% | –
O=C(N/N=C/C(Cl)=C/c1ccccc1)c1cnccn1 | inactive: -1.46% | –
CC[C@]12CCCN3CCc4c(n(c5ccccc45)[C@@](O)(C(=O)OC)C1)[C@@H]32 | inactive: -10.8% | –
Cc1cccc(N=C2NC(=O)/C(=C\c3cccs3)S2)c1 | inactive: -5.17% | –
O=C(c1ccc(OCCN2CCCCC2)cc1)c1c(-c2ccc(O)cc2)sc2cc(O)ccc12 | inactive: -7.71% | –
CCCCCCN1C[C@H](n2cc(-c3ccc(F)cc3)nn2)[C@@H](O)C[C@@H]1c1ccc(OC)cc1 | inactive: -22.5% | –
O=C(NC1CCS(=O)(=O)C1)c1sc2ccccc2c1Cl (centres undefined) | inactive: 14.5% | –
O=C(COC(=O)/C=C/c1cccc(F)c1)Nc1ncccn1 | inactive: 18% | –
CCc1cccc(CC)c1NC(=O)CSc1nc2ccc(N3C(=O)C4C(C3=O)[C@H]3C=C[C@@H]4C3)cc2s1 (some centres undefined) | inactive: 9.92% | –
O=C(NCc1ccco1)/C(=C\c1cccc([N+](=O)[O-])c1)NC(=O)c1ccco1 | inactive: 2.36% | –
COc1ccc2c(C)cc(SCC#N)nc2c1 | – | active: 22.4 µM
C[C@@H]1COC(=O)[C@H](NC(=O)OCC2c3ccccc3-c3ccccc32)C/C=C\C[C@@H](CC(=O)N[C@@H](CO)Cc2ccccc2)C(=O)N1 | inactive: -1.71% | –
COc1ccc2c(C=Nc3c(C)n(C)n(-c4ccccc4)c3=O)c(O)n(Cc3ccco3)c(=O)c2c1 | inactive: -27.8% | –
CCOC(=O)c1cc2c(=O)n3ccccc3nc2n(Cc2ccco2)c1=NC(=O)c1ccccc1OC | inactive: 1.92% | –
Nc1c(C(=O)NCc2ccc3c(c2)OCO3)nnn1CC(=O)Nc1ccc(Br)cc1 | inactive: -20.2% | –
CCCCCCSc1ccc([C@@H]2[C@H]3C(=O)N(C)C(=O)[C@H]3[C@]3(C(=O)OC)CCCCN23)cc1 | inactive: -9.6% | –
CC1=C(n2nnc3ccccc32)C(c2ccccc2)C(C#N)=C(N)O1 (centres undefined) | – | active: 25.1 µM

SMILES | activity, negative = active | Potency
CCCCCCN1C[C@H](n2cc(-c3ccc(F)cc3)nn2)[C@@H](O)C[C@@H]1c1ccccc1 | inactive: -8.66% | –
COc1ccc(NC(=O)C(CC(C)C)NC(=O)C2CCCCC2)c(OC)c1 (centres undefined) | inactive: -9.65% | –
O=C(Nc1cccc(Cl)c1Cl)c1cc(S(=O)(=O)NCCc2ccccc2)ccc1F | inactive: -29% | –
CCOC(=O)C1=C(C)NC(C)=C(C(=O)OCC)C1C(=O)OCC(=O)N1c2ccccc2CC1C (centres undefined) | inactive: 1.41% | –
O=C(CSc1nc2c([nH]c3ccccc32)c(=O)n1-c1cccc(Cl)c1)N1CCOCC1 | inactive: -11.2% | –
COc1cc(NC(=O)c2cncc(-c3ccc(C#N)cc3)c2)cc(C(=O)Nc2cccc(C(F)(F)F)c2)c1 | inactive: -1.62% | –
O=C(Nc1cccc(F)c1)/C(=C/c1ccco1)NC(=O)c1ccco1 | inactive: 2.63% | –
Cc1ccoc1C(=O)N1CCCCC1C(=O)O (centres undefined) | inactive: 15.1% | –
CCCC(=O)NC(c1ccc(OC)cc1)c1ccc2cccnc2c1O (centres undefined) | – | active: 11.2 µM
C/C(=N\Nc1nc(C)cc(-c2ccccc2)n1)c1ccc(F)cc1 | – | active: 20 µM
CC1=C(C(=O)OCc2ccccc2)C(c2cccnc2)c2c(n(C)c(=O)n(C)c2=O)N1 (centres undefined) | inactive: -20.1% | –
CCOc1ccc(/C=C2\CCc3ccccc3C2=O)cc1 | inactive: 33.7% | –
COc1ccc(-c2cc(C)no2)cc1S(=O)(=O)N1CCOc2ccc(Cl)cc21 | inactive: 3.1% | –
CC1=CC(C)(C)NC(=S)N1c1cccc(C)c1 | inactive: 2.62% | –
CCOC(=O)/C=C1\SCC(=O)N1CC(=O)Nc1ccccc1OC(F)F | inactive: 2.46% | –
O=C1C(=Cc2ccccc2[N+](=O)[O-])Cc2ccccc21 | – | active: 12.6 µM
O=C(NCCN1C(=O)S/C(=C\c2cccnc2)C1=O)c1ccc(S(=O)(=O)N2CCCC2)cc1 | inactive: 6.8% | –
CNC(=O)c1sc(N2N=C3/C(=C\c4ccccc4)CCCC3C2c2ccccc2)nc1C (centres undefined) | inactive: -9.29% | –
OCCN1CCN(CC(O)COc2ccc3ccccc3c2)CC1 (centres undefined) | inactive: -0.267% | –
CC(=O)Nc1ccc(S(=O)(=O)NC2(C(F)(F)F)NC(=O)N(c3ccc(C)cc3)C2=O)cc1 (centres undefined) | inactive: -13.7% | –
N#C/C(=C\c1ccc([N+](=O)[O-])cc1)C(=O)Nc1ccccc1O | inactive: -23.2% | –
CCOC(=O)/C(C#N)=N\Nc1cc(Cl)ccc1OC | – | active: 10 µM
